The supplement of paper PMC3334620
The full ranking holds about 33,000 sequences; the median of “E-score (-0.5 to 0.5)” is about -0.036, and the highest 2% start at about 0.37. The list shows a part of the results.

Target: T1, Yer064c (UniProt P40041)
T1 sequence: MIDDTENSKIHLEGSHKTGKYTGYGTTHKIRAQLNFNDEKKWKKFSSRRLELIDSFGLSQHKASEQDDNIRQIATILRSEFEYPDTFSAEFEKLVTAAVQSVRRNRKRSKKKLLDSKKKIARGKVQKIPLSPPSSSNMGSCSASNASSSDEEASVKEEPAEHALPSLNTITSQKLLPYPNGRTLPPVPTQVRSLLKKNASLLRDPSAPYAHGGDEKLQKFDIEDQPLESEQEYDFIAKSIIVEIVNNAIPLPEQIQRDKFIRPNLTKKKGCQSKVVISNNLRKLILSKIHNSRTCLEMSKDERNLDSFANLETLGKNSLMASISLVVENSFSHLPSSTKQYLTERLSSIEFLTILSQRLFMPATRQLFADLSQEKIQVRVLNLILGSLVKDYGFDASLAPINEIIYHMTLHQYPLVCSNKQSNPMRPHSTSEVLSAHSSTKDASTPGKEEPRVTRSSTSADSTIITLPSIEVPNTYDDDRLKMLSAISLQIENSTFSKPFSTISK
Assay: PBM E-score (8-mer binding enrichment) (E-score (-0.5 to 0.5)); higher = stronger / more preferred TF binding; most listed sequences are background and not binding sites
Settings: protein concentration: 200 nM; construct: GST-full length
Outline: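 The E-score, a modified Wilcoxon-Mann-Whitney statistic, was computed by the Universal PBM Analysis Suite for every ungapped eight-base word pooled with its reverse complement. Scans behind it were normalised with masliner after bound GST-tagged yeast transcription factors were detected with fluorescent anti-GST. The proteins, at about 100-200 nM, had been applied to universal all-10-mer Agilent arrays made double-stranded by primer extension.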

Sequence	PBM E-score
GACGCGGA	-0.158
ATACACTC	0.144
CTCAAGGC	0.104
ATCCAGCA	-0.101
GGTCAGCA	-0.0951
GCGTATAC	0.00913
CCGCATAC	-0.117
ATGGAGTA	0.182
AGGAGAAC	-0.151
CGTTGTAC	-0.0197
ACACAAAG	0.05
CCGCACAC	-0.102
CAAATCAA	0.126
TCGAGCGA	0.0738
CAAGTATG	0.164
AGATCGGA	0.0279
CCTGATTA	0.344
ACAGTACA	0.0408
AATTGTCC	-0.072
CCCGGGCC	-0.273
GCCCTCGC	-0.288
GTGTATAA	0.0333
ATGTGGCG	-0.302
CACACTCA	0.171
AATAGGGT	-0.117

Sequence	PBM E-score
CCGACGCC	-0.0992
CCGACTGA	0.192
ATACACTA	0.0112
AGCCTCCC	-0.188
ATTCAACA	0.191
GAAGTCAA	0.357
AGCCTTTC	-0.263
AATCCTTA	-0.00608
CCTTTAAC	0.0238
CCCCCCCG	-0.054
ATTCGCGA	0.122
ATAGTCAT	0.489
AAAAGCCT	-0.127
CGAATCCG	0.0437
CACGCTCC	-0.244
CAGATATA	-0.0684
CTTGAGGC	-0.146
AACAGTAC	0.0768
ACGCTGGC	-0.197
ATTGTACA	0.0112
TTATGCAA	0.0691
AAGTACGC	-0.0952
GTGACAGA	-0.0932
ACTGAACG	0.0327
CGCCGGCA	-0.0982

Sequence	PBM E-score
ACGGGCCA	-0.376
CAAAGGCC	-0.278
CCCCTGCG	-0.348
GACTGTGC	0.19
CCGACCCA	-0.16
AAAAAAAC	-0.0134
ACCCCGTA	-0.00527
GAAACGAC	0.116
ACCTAACA	-0.0986
CAAGGACG	-0.103
ACTTGAGG	0.0112
GCTGCACA	-0.139
AGACAGTG	-0.0351
AGGGAATG	-0.0881
ATGTCTGG	-0.153
CCTGTCGC	-0.264
AGAATTCT	0.146
GAAATCTA	-0.101
AGCACAGA	0.0464
AGACTTTA	0.124
GAATAGCA	0.147
CCTTTTTC	0.00747
GTAGTTTA	0.115
ACTTTCTC	0.0558
GCCCGGTA	-0.284

Sequence	PBM E-score
GGTTTCAA	-0.0375
GTCGATCA	0.0338
AATCTTGA	0.193
ATTCGTTA	0.198
CGTAAATA	0.0322
ATTTTCCG	-0.0895
ATTGAGCG	0.0955
CGGACTGC	0.111
AATGCATG	0.0357
CAGTTAAC	-0.0534
AGGCATGG	-0.0669
ACCCATAA	0.145
GCTGCCCC	-0.203
AGATCGAG	-0.173
GCCCCCTA	-0.302
AGCATGCC	-0.131
GGAAGTCA	0.426
AGTGCCTG	-0.118
CGCCCGCA	-0.0824
CACGCTAA	-0.0272
AATGCTTA	-0.162
GGGGTCAA	-0.102
AAACGAGA	0.0214
TGGCAGAA	-0.0929
CCCTGTTC	-0.222

Sequence	PBM E-score
CGAATCTA	-0.0926
GATCCCCA	-0.127
CAACTGGG	-0.217
GAGCACAC	-0.151
ATCTCGCG	0.0687
CTTCCAAG	0.0955
GTTGCATA	-0.0714
ATGTTAAC	0.0543
AAGCCATG	0.0388
ATCTACTA	0.0859
AGTCTCAG	0.337
ACTGTTTA	0.204
GACACCGA	0.0153
AGCAGCTA	-0.125
CACTCAGG	0.0389
AACCCACC	0.111
AACATAAG	-0.0141
GATACTTA	-0.0171
CCAATCGA	-0.0138
CCTAAAGC	-0.134
AATCGCTA	0.00634
GCCCTGAA	-0.165
TGAACTCA	0.253
ATCCATAC	0.0869
GGGAGTAC	0.137

Sequence	PBM E-score
ACCCAACG	0.00091
GGGTAGAA	-0.161
ATGAAATA	-0.0533
CCCATTCC	-0.066
ATATGGAC	0.0761
GCAGGCCC	-0.336
CTTCAACC	-0.0787
AAGATTAG	0.171
AAACTCCC	-0.271
ATTTTCGA	0.112
GATGTCCC	-0.168
GTGGTCTA	0.0978
GCCTTAGC	-0.0881
CCTAACCC	-0.134
AACTAGAA	-0.161
GTCAGGAC	0.245
ACGATGCT	-0.204
ACACCGTC	-0.0522
AGCGCCCG	-0.316
CACGGCCC	-0.142
CTTGGGAA	0.0531
CTAGTAGA	0.0545
AATAGAAC	0.112
GCGTTGAA	-0.108
CAGTTGAC	0.227

Sequence	PBM E-score
CCGCGCCA	-0.0972
AACCGCGT	0.0184
CACGTTCG	-0.0799
CTAGGAGA	-0.0369
ATACAAAC	-0.0266
CACAGGTC	-0.107
ATAGGCCG	-0.319
GTACTTAA	0.123
CCCCTAAG	-0.13
GAATTGGA	-0.046
CGTTGCCC	-0.211
CATGAACC	0.0809
CACGTAGC	-0.199
TTAATAAA	0.234
TGACTCCA	0.479
GTAATGGA	0.126
GACCATGC	-0.0432
AAGACTTC	0.241
CCGTCAGG	-0.274
CCGATACG	-0.121
ACTCCTGG	-0.00178
GGCGCCGA	-0.0673
AACGAACA	0.0134
AGCCTGCC	-0.341
TCCAAAAA	0.0763

Sequence	PBM E-score
CAACGTCA	0.0913
GAGACCGA	-0.106
AGTGACCG	-0.22
ACGTCTAG	0.115
CCTGGCTC	0.0419
GCCTAGGC	-0.179
ACTCACGG	0.376
CCGACGAA	-0.0746
ACCGTGGA	-0.0982
CAGTAAGA	0.106
AGTGGTGC	-0.103
ACCCCCTG	-0.235
AGGTGAGC	-0.00638
GCCTGACC	-0.125
GTCAACCA	0.25
ATGACGAC	0.172
AACCAACA	-0.0532
CGTTTATC	0.0192
ATCATCCC	0.278
CGTCATTA	-0.0609
ACTAAACA	0.233
ATAGTGGG	-0.146
ACCACGCG	0.0997
CGCGTGGA	-0.204
GTTAGGGA	-0.158

Sequence	PBM E-score
CGTGGCAG	0.07
ATAATGTC	-0.115
GCGAAAGC	-0.196
AGTACAGG	-0.0366
AAAGAAGG	-0.275
AGCATTTG	-0.101
CGGCTGGC	-0.13
CCGTAACA	-0.172
ATTTGTCA	-0.115
ATGTAAGA	0.0507
ACACGACG	0.00926
ATGCACAT	-0.107
ACTTCCAA	0.0955
ACCAGGGA	-0.192
CCGGGGAG	-0.0658
AATCAAGT	0.268
AACTATGT	-0.0825
ACTAGAAT	0.0979
ACGCGCAA	-0.0453
CAAACCGC	-0.0599
ACCACCTG	0.0602
GCAGTCAC	0.435
GATAAAGA	-0.119
ACAGATTG	-0.159
CACTCATA	0.259

Sequence	PBM E-score
CGATGCCA	-0.262
AATTGTTG	-0.091
AAGGGCTC	-0.195
CAAAGTAA	0.0205
ACCCTTCG	-0.129
ACTTCAAA	0.179
AATTTGGA	-0.0789
ACCAATGC	-0.0659
CGATATAA	-0.151
CCGGAAAA	-0.0224
AGAATTGG	-0.0862
CCATCCGG	-0.146
CTACACAG	0.15
GTAGGCAC	-0.307
CAAGTCGG	-0.0486
ACTTTCGG	-0.0323
AACGATTC	0.231
CCGGATAG	-0.0554
ACCAAAAG	-0.0119
GGGGCATA	-0.185
AATGCAGC	-0.127
TCATAAGA	0.261
TACATCCA	-0.123
CGCGGTAC	-0.129
ACCGAGTG	-0.0541

Sequence	PBM E-score
TAATTTCA	0.086
AGGCTGCG	-0.233
CCTGGGCC	-0.309
CCAGTAAA	-0.242
GACTCTAA	0.381
TCATCCCA	0.147
AGTATTCA	0.0452
GTGGAAGA	0.101
CGACCGGA	-0.169
CCTTTAAG	0.0502
ACCGGCGG	-0.156
TATTGAGA	0.168
GTAAGTCA	0.448
ACTGGCGG	0.227
ACAGAGAA	-0.11
CGGCCGAC	0.16
CTAGGTGC	-0.254
CGAAAAAG	0.13
ACGCCCGA	-0.359
ACTTCCCA	-0.0249
CCTGTAAG	0.0112
GCATCAAC	-0.122
AAAATTTA	0.141
CTCGCATA	0.0331
ACTAGTCA	0.456

Sequence	PBM E-score
AAGGGTTG	-0.0496
CCCGATAC	-0.157
GTGCCAAA	-0.122
AAGTTACC	0.00671
CTACGAAC	-0.0979
CCGGCCCA	-0.364
AAATATCA	-0.0552
ATACAGAT	-0.058
TCTGAACA	-0.0894
CTATTAGA	0.102
CCAATAGG	-0.159
ATGGTCTA	0.0765
GAAACGTC	-0.263
AGAGTGAT	0.272
GTTAATTA	0.0895
CTTTAACA	-0.0802
ATGTCAGC	-0.0283
ACGGTTCT	-0.0614
AGCCGGGA	-0.254
CTACTTTC	0.0258
ATGTTCTC	-0.0875
CGCGGCGA	0.0199
AACGGACG	0.0149
CTTTGTGC	-0.111
TCCACTCA	0.0393

Sequence	PBM E-score
AGTTATGA	0.167
ATCGAGTA	0.138
CCGCATTA	-0.268
ATACCCTC	-0.0958
AAAATAAA	0.082
GTTGAGGA	-0.048
GTGTGCGA	0.0296
CGGTCGAC	-0.0378
CGGTTGTA	-0.173
TGATGCCA	-0.152
ATTCAAAA	0.2
CGGCGAAC	-0.11
ACGAACTA	0.108
CTCTTCAA	0.0517
GATTTTCC	-0.07
AAACTGAC	0.0698
ACTAATAG	0.211
TCGGTCCA	-0.287
GTACTGTA	-0.145
ATGGCGAC	0.0194
AGCGAAGA	0.0987
AAGCTCCG	-0.23
AAACACAG	0.123
TCGTCAAA	0.0778
CCCGTTAC	-0.106

Sequence	PBM E-score
CTACGGTA	0.0309
CGGGGTGC	-0.272
CTGCTGTA	-0.112
GAGATGTA	0.0684
GAAGAAGA	0.0213
CCTGCTTA	-0.023
AAACTGCT	-0.232
AACTGCCT	0.135
CTTGTTAA	0.157
ATCCCCTC	-0.188
CGTACGAA	-0.0481
AAACTGTC	-0.23
AACTGGCG	-0.0703
AAGGTAAT	0.227
CTACCTAG	-0.16
CGAGGGAC	-0.309
GATGTCGA	-0.00432
CTAAGCCC	-0.0644
TAGGAGCA	-0.00171
